Measurements reported in the supplement of paper PMC4967469.
pIC50: −log10 of the molar value. By IC50 is meant the dose at which the fit gives 50% viability; fits outside the tested doses are given as limits. AUC is the area under the same curve over the 256-fold range up to the top dose, as a fraction; the more sensitive the line, the further below 1. For some of these results: An inferred top dose is not printed in the source and was worked back from the curve model. For some of these results: An entry number marks a drug with two screens in the source, which often give different values.

Experiments:
Assay in all cases: Viability of human cancer cell lines after 72 h of drug (GDSC screen)
[1] = compound: Cc1ccc(C(=O)N(CCCN)[C@@H](c2nc3cc(Cl)ccc3c(=O)n2Cc2ccccc2)C(C)C)cc1 [SB-715992]; conditions: top dose 0.128 µM; top dose inferred
Experimental: (§1)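 Human cancer cell lines in 384-well plates, medium with 10% serum, drug for 72 h over a 256-fold dose range (nine 2-fold or five 4-fold steps up to the top dose). Adherent lines were fixed and stained with the nucleic acid dye Syto60, suspension lines read with resazurin; signal relative to control wells, capped at 0 and 100%. One two-parameter sigmoid per drug and line, fitted in a mixed model over all curves with the slope shared within a line.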

[2] = compound: OCCCNc1cc(-c2ccnc(Nc3cccc(Cl)c3)n2)ccn1 [CGP-60474]; conditions: top dose 0.256 µM; top dose inferred
Experimental: as §1

[3] = compound: C[C@]1(O)C[C@@H](c2nc(-c3ccc4ccc(-c5ccccc5)nc4c3)c3c(N)nccn32)C1 [OSI-906]; conditions: top dose 2.56 µM; top dose inferred
Experimental: as §1

[4] = compound: Cc1sc2c(c1C)C(c1ccc(Cl)cc1)=N[C@@H](CC(=O)OC(C)(C)C)c1nnc(C)n1-2 [JQ1]
Experimental: as §1

[5] = compound: COC(=O)[C@H](CCSC)NC(=O)c1ccc(NC[C@@H](N)CS)cc1-c1ccccc1 [FTI-277]; conditions: top dose 1.024 µM; top dose inferred
Experimental: as §1

[6] = compound: CCOc1nc(NC(=O)Cc2cc(OC)ccc2OC)cc(N)c1C#N [JNK Inhibitor VIII]; conditions: top dose 10 µM; top dose inferred
Experimental: as §1

[7] = compound: CC(=O)O[C@@]12CO[C@@H]1C[C@H](O)[C@@]1(C)C(=O)[C@H](O)C3=C(C)[C@@H](OC(=O)[C@H](O)[C@@H](NC(=O)OC(C)(C)C)c4ccccc4)C[C@@](O)([C@@H](OC(=O)c4ccccc4)[C@H]21)C3(C)C [Docetaxel]; conditions: top dose 0.0125 µM
Experimental: as §1

[8] = compound: CC1(C)CNc2cc(NC(=O)c3cccnc3NCc3ccncc3)ccc21 [AMG-706]; conditions: top dose 2 µM; top dose inferred
Experimental: as §1

[9] = compound: COc1cc(N2CCC(N3CCN(C)CC3)CC2)ccc1Nc1ncc(Cl)c(Nc2ccccc2S(=O)(=O)C(C)C)n1 [NVP-TAE684]; conditions: top dose 2 µM
Experimental: as §1

[10] = compound: COCC[n+]1c2c(n(Cc3cnccn3)c1C)C(=O)c1ccccc1C2=O [YM155]; conditions: top dose 5.12 µM
Experimental: as §1

[11] = compound: c1ccc2c(CCNc3ccc(Nc4ccncc4)cc3)c[nH]c2c1 [JNJ-26854165]; conditions: top dose 10 µM
Experimental: as §1

[12] = compound: O=C(/C=C/c1cccc(S(=O)(=O)Nc2ccccc2)c1)NO [Belinostat]; conditions: top dose 20 µM; top dose inferred
Experimental: as §1

[13] = compound: CN1CCN(c2ccc([N+](=O)[O-])c3no[n+]([O-])c23)CC1 [NSC-207895]; conditions: top dose 20 µM; top dose inferred
Experimental: as §1

[14] = compound: CC1=C2C[C@H]3[C@@H](CC=C4C[C@@H](O)CC[C@@]43C)[C@@H]2CC[C@]12O[C@@H]1C[C@H](C)CN[C@H]1[C@H]2C [Cyclopamine]; conditions: top dose 16 µM; top dose inferred
Experimental: as §1

[15] = top dose 1 µM, screen: GDSC drug entry 1218, top dose inferred
[16] = top dose 2.56 µM, screen: GDSC drug entry 163

A704 (kidney, adherent)
AUC [1]: 0.989 | pIC50 [1]: < 6.89 | AUC [2]: 0.828 | pIC50 [2]: 6.82 | AUC [3]: 0.972 | pIC50 [3]: < 5.59 | AUC [4, 15]: 0.988 | pIC50 [4, 15]: < 6.00 | AUC [4, 16]: 0.986 | pIC50 [4, 16]: < 5.59 | AUC [5]: 0.848 | pIC50 [5]: 6.14 | AUC [6]: 0.989 | pIC50 [6]: < 5.00 | AUC [7]: 0.915 | pIC50 [7]: < 7.90 | AUC [8]: 0.975 | pIC50 [8]: < 5.70 | AUC [9]: 0.768 | pIC50 [9]: 6.14

CP67-MEL (melanoma, adherent)
AUC [2]: 0.654 | pIC50 [2]: 7.23 | AUC [9]: 0.89 | pIC50 [9]: < 5.70

HCE-4 (oesophagus, adherent)
AUC [10]: 0.875 | pIC50 [10]: 5.42 | AUC [11]: 0.811 | pIC50 [11]: 5.36 | AUC [1]: 0.961 | pIC50 [1]: < 6.89 | AUC [2]: 0.678 | pIC50 [2]: 7.33 | AUC [4, 15]: 0.987 | pIC50 [4, 15]: < 6.00 | AUC [4, 16]: 0.974 | pIC50 [4, 16]: < 5.59 | AUC [5]: 0.99 | pIC50 [5]: < 5.99 | AUC [9]: 0.833 | pIC50 [9]: 5.98 | AUC [12]: 0.961 | pIC50 [12]: < 4.70 | AUC [13]: 0.99 | pIC50 [13]: < 4.70

IA-LM (large cell lung carcinoma, adherent)
AUC [10]: 0.079 | pIC50 [10]: > 7.70 | AUC [11]: 0.899 | pIC50 [11]: < 5.00 | AUC [1]: 0.875 | pIC50 [1]: < 6.89 | AUC [2]: 0.644 | pIC50 [2]: 7.37 | AUC [3]: 0.979 | pIC50 [3]: < 5.59 | AUC [4, 15]: 0.955 | pIC50 [4, 15]: < 6.00 | AUC [4, 16]: 0.514 | pIC50 [4, 16]: 6.75 | AUC [5]: 0.835 | pIC50 [5]: 6.10 | AUC [6]: 0.969 | pIC50 [6]: < 5.00 | AUC [7]: 0.874 | pIC50 [7]: < 7.90 | AUC [8]: 0.96 | pIC50 [8]: < 5.70 | AUC [9]: 0.943 | pIC50 [9]: < 5.70 | AUC [12]: 0.727 | pIC50 [12]: 5.22 | AUC [13]: 0.978 | pIC50 [13]: < 4.70

KP-N-RT-BM-1 (neuroblastoma, semi-adherent)
AUC [2]: 0.809 | pIC50 [2]: 6.73 | AUC [9]: 0.636 | pIC50 [9]: 6.48

SUP-B15 (lymphoblastic leukaemia, suspension)
AUC [10]: 0.022 | pIC50 [10]: > 7.70 | AUC [11]: 0.723 | pIC50 [11]: 5.59 | AUC [1]: 0.469 | pIC50 [1]: 8.18 | AUC [2]: 0.712 | pIC50 [2]: 7.21 | AUC [3]: 0.986 | pIC50 [3]: < 5.59 | AUC [4, 16]: 0.554 | pIC50 [4, 16]: 6.65 | AUC [5]: 0.946 | pIC50 [5]: < 5.99 | AUC [14]: 0.977 | pIC50 [14]: < 4.80 | AUC [6]: 0.983 | pIC50 [6]: < 5.00 | AUC [7]: 0.922 | pIC50 [7]: < 7.90 | AUC [8]: 0.986 | pIC50 [8]: < 5.70 | AUC [12]: 0.226 | pIC50 [12]: 6.68 | AUC [13]: 0.904 | pIC50 [13]: < 4.70

SUP-HD1 (Hodgkin lymphoma, suspension)
AUC [10]: 0.063 | pIC50 [10]: > 7.70 | AUC [11]: 0.962 | pIC50 [11]: < 5.00 | AUC [1]: 0.747 | pIC50 [1]: 7.41 | AUC [2]: 0.615 | pIC50 [2]: 7.49 | AUC [3]: 0.982 | pIC50 [3]: < 5.59 | AUC [4, 15]: 0.986 | pIC50 [4, 15]: < 6.00 | AUC [4, 16]: 0.782 | pIC50 [4, 16]: 5.99 | AUC [5]: 0.983 | pIC50 [5]: < 5.99 | AUC [14]: 0.974 | pIC50 [14]: < 4.80 | AUC [6]: 0.97 | pIC50 [6]: < 5.00 | AUC [7]: 0.945 | pIC50 [7]: < 7.90 | AUC [8]: 0.985 | pIC50 [8]: < 5.70 | AUC [12]: 0.274 | pIC50 [12]: 6.53 | AUC [13]: 0.804 | pIC50 [13]: 5.02
